Like-named read-outs stand apart in the source and are kept apart here.
What was measured:
[1] = Circular dichroism (CD) spectroscopy analysis, melting temperature and refolding; type: physicochemical; details: for Tm (° C.): His6-tagged Z variants 0.5 mg/ml in PBS, 221 nm, 20 to 90° C. (Example 2); for Melting temperatures (Tm): His6-tagged Z variants, CD variable temperature measurement
Description: Purified His6-tagged Z variants were diluted to 0.5 mg/ml in PBS. For each diluted Z variant, a CD spectrum at 250-195 nm was obtained at 20° C. In addition, a variable temperature measurement (VTM) was performed to determine the melting temperature (Tm). In the VTM, the absorbance was measured at 221 nm while the temperature was raised from 20 to 90° C., with a temperature slope of 5° C./min. A new CD spectrum was obtained at 20° C. after the heating procedure in order to study the refolding ability of the Z variants. The CD measurements were performed on a Jasco J-810 spectropolarimeter (Jasco Scandinavia AB) using a cell with an optical path length of 1 mm.
CD was analyzed for His6-tagged Z variants, as described in Example 2.

TF-1 cells = experiment: In vitro IL-1β neutralization assay (TF-1 cell assay); type: cell-based; details: His6-Z polypeptides
Description: The TF-1 cell line proliferates in response to many different cytokines including IL-1β. This cell line was used to assess the ability of primary IL-1R1 binders to inhibit IL-1β actions. TF-1 cells were maintained in RPM11640 with L-glutamine (Lonza) supplemented with 10% FCS (Gibco), Penicillin-Streptomycin (Lonza) and 2 ng/ml rhGM-CSF (R&D Systems). Prior to use, cells were washed twice in RPM11640 without rhGM-CSF. Cells were then counted and dispensed into 96 well flat bottomed plates at a density of 3×10^4 cells per well. In separate plates, serial dilutions of the inhibitory binders; His6-tagged IL-1R-I binding Z variants, with a concentration range of 400-0.1 nM, or the IL-1R-I binding protein Kineret (anakinra, Sobi), with a concentration range of 0.3-0.0003 nM, were incubated in the presence of 0.6 nM IL-1β (PeproTech). The pre-mixed complexes of the Z variant polypeptides and IL-13 were transferred to wells containing TF-1 cells. The cells were stimulated for 72 h at 37° C. in a humidified 5% CO2 atmosphere. During the last four hours of incubation, 19 μl of 2× diluted CCK-8 (Fluka, Sigma Aldrich), was added per well to determine the proliferative responses. The absorbance was measured at 450 nm using a microplate reader (Victor3, Perkin Elmer). The data on cell growth was assessed by non-linear regression to a four-parameter dose-response curve, and the half maximal inhibitory concentration (IC50) was determined using GraphPadPrism program.
(§1) His6-tagged IL-1R-I specific Z variants were tested for their inhibitory capacity in the TF-1 cell assay. The assay was run as described in Example 2. The data on cell growth was assessed by non-linear regression to a four-parameter dose-response curve, and IC50 values were determined using GraphPadPrism program. His6-tagged Z12967 was included for comparison.
as §1, with “Z12967, Z16065, Z16163 and Z18557 were” for “Z12967 was”

hIL-1R-I = target: T1, hIL-1R-I (Homo sapiens, UniProt P14778); experiment: Biacore affinity/kinetic analysis of His6-tagged Z variants, human IL-1R-I; type: binding
T1 construct: purchased R&D Systems 269-1R/CF
T1 sequence (P14778 18-569): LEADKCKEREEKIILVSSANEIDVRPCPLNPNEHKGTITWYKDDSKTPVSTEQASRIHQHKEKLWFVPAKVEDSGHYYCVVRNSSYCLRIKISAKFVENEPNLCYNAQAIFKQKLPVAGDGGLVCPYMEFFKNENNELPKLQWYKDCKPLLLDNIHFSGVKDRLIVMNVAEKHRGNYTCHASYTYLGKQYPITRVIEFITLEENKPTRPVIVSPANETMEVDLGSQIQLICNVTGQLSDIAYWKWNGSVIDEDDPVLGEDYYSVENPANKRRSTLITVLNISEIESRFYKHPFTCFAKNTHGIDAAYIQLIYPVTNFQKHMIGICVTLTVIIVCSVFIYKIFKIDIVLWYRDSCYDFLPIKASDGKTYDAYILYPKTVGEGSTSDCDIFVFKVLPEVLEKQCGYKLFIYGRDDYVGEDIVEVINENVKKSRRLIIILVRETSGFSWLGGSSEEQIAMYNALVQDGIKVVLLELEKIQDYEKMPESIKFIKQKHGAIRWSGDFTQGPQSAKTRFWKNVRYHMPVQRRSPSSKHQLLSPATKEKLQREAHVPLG
Description: Affinities (KD) for human and cynomolgus IL-1R-I were determined for His6-tagged Z variants using a Biacore 2000 instrument (GE Healthcare). hIL-1R-I or cIL-1R-I-His6 was immobilized on the carboxylated dextran layer in different flow cells of a CM5 chip (GE Healthcare, cat. no. BR100012). The immobilization was performed using amine coupling chemistry according to the manufacturer's protocol. Acetate pH 4.5 (GE Healthcare, cat. no. BR100350) was used for ligand dilution and HBS-EP (GE Healthcare, cat. no. BR100188) was used as running buffer. One flow cell surface on the chip was activated and deactivated for use as blank during analyte injections. In the kinetic experiment, HBS-EP was used as running buffer, the flow rate was 50 μl/min and the temperature was 25° C. The analytes, i.e. the Z variants, were each diluted in HBS-EP buffer to final concentrations of 40 nM and 10 nM, and were injected over the target chip surfaces for 2 min, followed by dissociation in running buffer for 8 min. Kinetic constants were calculated from the obtained sensorgrams using a 1:1 binding model, in the BiaEvaluation software 4.1 (GE Healthcare).
The kinetic constants (kon and koff) and affinities (KD) for human and cynomolgus IL-1R-I were determined for His6-tagged Z variants using a Biacore 2000 instrument (GE Healthcare). The experiment was run essentially as described in Example 2, using 100, 10 and 1 nM of the Z variants. The analyte injection time was 3 min followed by 15 min dissociation and 2×5 s glycine pH 3.0 (GE Healthcare, cat. no. BR100357), supplemented with 0.5 M NaCl, was used for regeneration of the surfaces between the cycles. Kinetic constants were calculated from the obtained sensorgrams of two or three concentrations of the respective Z variant, using a 1:1 binding model in the BiaEvaluation software 4.1 (GE Healthcare). His6-tagged Z12967 was included in the assay for comparison.
The kinetic constants (kon and koff) and affinities (KD) for human and cynomolgus IL-1R-I were determined for His6-tagged Z variants using a Biacore 2000 instrument (GE Healthcare). The experiment was run essentially as described in Example 5, using 48, 12, 3 and 0.75 nM of the Z variants. The analyte injection time was 3 min followed by 6 min dissociation and 2×5 s glycine pH 3.0, supplemented with 0.5 M NaCl, was used for regeneration of the surfaces between the cycles. Kinetic constants were calculated from the obtained sensorgrams of three or four concentrations of the respective Z variant, using a 1:1 binding model in the BiaEvaluation software 4.1 (GE Healthcare). His6-tagged Z12967 (SEQ ID NO:9), Z16065 (SEQ ID NO:268), Z16163 (SEQ ID NO:359) and Z18557 (SEQ ID NO:1205) were included in the assay for comparison.

[2] = His6-Z polypeptides, Biacore 2000, 25° C., 40 nM and 10 nM (Example 2), read-out: Human IL-1R-I KD
[3] = IL-1β inhibition in TF-1 cell assay, Table 12 (first matured library)
[4] = His6-Z polypeptides binding to human IL-1R-I, Biacore, Table 19
[5] = His6-Z polypeptides, 100, 10 and 1 nM (Example 5)
[6] = His6-Z polypeptides, 100, 10 and 1 nM (Example 5), read-out: KD

| Substance | Tm (° C.) [1] | IC50 (TF-1 cells; 0.6 nM IL-1β, 72 h (Example 2)) | Kd (hIL-1R-I; [2]) | IC50 (TF-1 cells; [3]) | koff (hIL-1R-I; [5]) | kon (hIL-1R-I; [5]) | Kd (hIL-1R-I; [6]) | other results |
| --- | --- | --- | --- | --- | --- | --- | --- | --- |
| Z12884: IL-1R-I binding Z variant (VDAKYAKEASLAQHEIFALPNLTRKQYTAFIRKLFDDPSQSSELLSEAKKLNDSQAPK; Engineered IL-1R-I binding polypeptide) | 49 °C | 27 nM | 18 nM | – | – | – | – | – |
| Z12895: IL-1R-I binding Z variant (VDAKYAKEALSAQQEIFALPNLTRRQYTAFIRKLLDDPSQSSELLSEAKKLNDSQAPK; Engineered IL-1R-I binding polypeptide) | 55 °C | 7.1 nM | 5.5 nM | – | – | – | – | – |
| Z12911: IL-1R-I binding Z variant (VDAKYAKEHEKAILEIFHLPNLTRRQYTAFIRKLLDDPSQSSELLSEAKKLNDSQAPK; Engineered IL-1R-I binding polypeptide) | 64 °C | 30 nM | 7.1 nM | – | – | – | – | – |
| Z12917: IL-1R-I binding Z variant (VDAKYAKEARQAYAEIYLLPNLTRRQYTAFIRKLLDDPSQSSELLSEAKKLNDSQAPK; Engineered IL-1R-I binding polypeptide) | 56 °C | 11 nM | 8 nM | – | – | – | – | – |
| Z12922: IL-1R-I binding Z variant (VDAKYAKEDEQAQLEIFNLPNLTRRQYTAFIRKLLDDPSQSSELLSEAKKLNDSQAPK; Engineered IL-1R-I binding polypeptide) | 47 °C | 66 nM | 9.8 nM | – | – | – | – | – |
| Z12974: IL-1R-I binding Z variant (VDAKYAKEADHAQQEIFALPNLTRRQYTAFIIKLLDDPSQSSELLSEAKKLNDSQAPK; Engineered IL-1R-I binding polypeptide) | 49 °C | 60 nM | 15 nM | – | – | – | – | – |
| Z12975: IL-1R-I binding Z variant (VDAKYAKEAHNAQQEIYRLPNLTRRQYTAFIIKLLDDPSQSSELLSEAKKLNDSQAPK; Engineered IL-1R-I binding polypeptide) | 51 °C | 35 nM | 89 nM | – | – | – | – | – |
| Z15876: IL-1R-I binding Z variant (VDAKYAKEIEAAQMEIFGLPNLTRKQYTAFIRKLFDDPSQSSELLSEAKKLNDSQAPK; Engineered IL-1R-I binding polypeptide) | – | – | – | 2.4 nM | 0.0013 s⁻¹ | 2.1e+06 M⁻¹ s⁻¹ | 0.62 nM | Melting temperatures (Tm) ([1]; Table 13): 55 °C; Melting temperatures (Tm) ([1]; Table 21): 55 °C; koff (hIL-1R-I; [4]): 0.0041 s⁻¹; kon (hIL-1R-I; [4]): 5.2e+06 M⁻¹ s⁻¹; Kd (hIL-1R-I; His6-Z polypeptides binding to human IL-1R-I, Biacore, Table 19, read-out: KD): 0.8 nM |
| Z15927: IL-1R-I binding Z variant (VDAKYAKEIEEAQMEIFYLPNLTRKQYTAFIRKLLDDPSQSSELLSEAKKLNDSQAPK; Engineered IL-1R-I binding polypeptide) | – | – | – | 2.5 nM | 0.0012 s⁻¹ | 2.4e+06 M⁻¹ s⁻¹ | 0.51 nM | Melting temperatures (Tm) ([1]; Table 13): 56 °C |
| Z15953: IL-1R-I binding Z variant (VDAKYAKETEKAQMEIFALPNLTRKQYTAFIRKLLDDPSQSSELLSEAKKLNDSQAPK; Engineered IL-1R-I binding polypeptide) | – | – | – | 3.7 nM | 0.0015 s⁻¹ | 6e+06 M⁻¹ s⁻¹ | 0.24 nM | Melting temperatures (Tm) ([1]; Table 13): 56 °C |
| Z16301: IL-1R-I binding Z variant (VDAKYAKEIEAAQMEIFELPNLTRKQYTAFIRKLLDDPSQSSELLSEAKKLNDSQAPK; Engineered IL-1R-I binding polypeptide) | – | – | – | 4.5 nM | 0.0021 s⁻¹ | 3.1e+06 M⁻¹ s⁻¹ | 0.66 nM | – |
| Z16363: IL-1R-I binding Z variant (VDAKYAKEVEQAQMEIFRLPNLTRKQYTAFIRKLLDDPSQSSELLSEAKKLNDSQAPK; Engineered IL-1R-I binding polypeptide) | – | – | – | 8.1 nM | 0.0018 s⁻¹ | 3.2e+06 M⁻¹ s⁻¹ | 0.57 nM | – |
| Z16378: IL-1R-I binding Z variant (VDAKYAKEVESAYFEIFKLPNLTRKQYTAFIRKLLDDPSQSSELLSEAKKLNDSQAPK; Engineered IL-1R-I binding polypeptide) | – | – | – | 32.7 nM | 0.0036 s⁻¹ | 6.6e+06 M⁻¹ s⁻¹ | 0.55 nM | – |
| Z17274: IL-1R-I binding Z variant (VDAKYAKEIEVAYMEIYHLPNLTRKQYTAFIRKLLDDPSQSSELLSEAKKLNDSQAPK; Engineered IL-1R-I binding polypeptide) | – | – | – | 4.6 nM | 0.0024 s⁻¹ | 1.1e+07 M⁻¹ s⁻¹ | 0.22 nM | – |
| Z17292: IL-1R-I binding Z variant (VDAKYAKEVEYAYFEIYSLPNLTRKQYTAFIRKLLDDPSQSSELLSEAKKLNDSQAPK; Engineered IL-1R-I binding polypeptide) | – | – | – | 13.2 nM | 0.005 s⁻¹ | 1.3e+07 M⁻¹ s⁻¹ | 0.38 nM | – |

From patent publication US12116397B2, “IL-IR-I binding polypeptide” (Swedish Orphan Biovitrum AB (publ), priority 2017, dated 2024)
